The target in one test is T1, GST-tagged MST2 (human) (UniProt Q13188).
T1 sequence: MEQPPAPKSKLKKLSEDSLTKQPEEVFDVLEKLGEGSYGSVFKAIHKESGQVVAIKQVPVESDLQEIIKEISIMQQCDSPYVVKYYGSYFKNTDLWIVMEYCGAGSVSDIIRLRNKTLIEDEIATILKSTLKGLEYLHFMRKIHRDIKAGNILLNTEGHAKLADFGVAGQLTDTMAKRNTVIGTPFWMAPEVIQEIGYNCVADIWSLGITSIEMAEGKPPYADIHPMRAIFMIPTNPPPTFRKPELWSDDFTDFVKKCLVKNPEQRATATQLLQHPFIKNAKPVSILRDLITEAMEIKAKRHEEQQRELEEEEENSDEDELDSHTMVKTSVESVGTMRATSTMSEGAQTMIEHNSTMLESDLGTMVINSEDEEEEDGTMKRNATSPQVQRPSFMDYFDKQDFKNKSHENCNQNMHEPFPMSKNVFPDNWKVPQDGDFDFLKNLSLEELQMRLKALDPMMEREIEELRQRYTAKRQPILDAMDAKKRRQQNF
Description: pull-down; pulldown with the kinase (MST2 or MST4) first dephosphorylated with lambda-phosphatase (λPPase); both purified.

By UniProt entry, the sequences of proteins in these tests, tags left out.
UniProt O95747: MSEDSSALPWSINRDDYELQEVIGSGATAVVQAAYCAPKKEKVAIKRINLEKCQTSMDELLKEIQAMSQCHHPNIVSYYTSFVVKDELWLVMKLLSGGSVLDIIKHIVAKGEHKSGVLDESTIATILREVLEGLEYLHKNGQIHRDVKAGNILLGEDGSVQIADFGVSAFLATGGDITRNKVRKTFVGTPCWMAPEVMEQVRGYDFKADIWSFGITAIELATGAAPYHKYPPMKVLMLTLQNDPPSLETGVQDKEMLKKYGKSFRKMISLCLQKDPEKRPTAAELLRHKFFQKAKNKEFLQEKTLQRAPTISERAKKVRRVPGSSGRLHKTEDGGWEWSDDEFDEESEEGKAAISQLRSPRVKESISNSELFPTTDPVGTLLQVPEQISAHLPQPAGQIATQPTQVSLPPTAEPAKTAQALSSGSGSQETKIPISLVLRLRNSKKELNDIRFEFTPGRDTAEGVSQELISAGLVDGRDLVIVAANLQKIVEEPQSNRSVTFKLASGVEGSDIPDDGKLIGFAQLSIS
UniProt Q5VSL9: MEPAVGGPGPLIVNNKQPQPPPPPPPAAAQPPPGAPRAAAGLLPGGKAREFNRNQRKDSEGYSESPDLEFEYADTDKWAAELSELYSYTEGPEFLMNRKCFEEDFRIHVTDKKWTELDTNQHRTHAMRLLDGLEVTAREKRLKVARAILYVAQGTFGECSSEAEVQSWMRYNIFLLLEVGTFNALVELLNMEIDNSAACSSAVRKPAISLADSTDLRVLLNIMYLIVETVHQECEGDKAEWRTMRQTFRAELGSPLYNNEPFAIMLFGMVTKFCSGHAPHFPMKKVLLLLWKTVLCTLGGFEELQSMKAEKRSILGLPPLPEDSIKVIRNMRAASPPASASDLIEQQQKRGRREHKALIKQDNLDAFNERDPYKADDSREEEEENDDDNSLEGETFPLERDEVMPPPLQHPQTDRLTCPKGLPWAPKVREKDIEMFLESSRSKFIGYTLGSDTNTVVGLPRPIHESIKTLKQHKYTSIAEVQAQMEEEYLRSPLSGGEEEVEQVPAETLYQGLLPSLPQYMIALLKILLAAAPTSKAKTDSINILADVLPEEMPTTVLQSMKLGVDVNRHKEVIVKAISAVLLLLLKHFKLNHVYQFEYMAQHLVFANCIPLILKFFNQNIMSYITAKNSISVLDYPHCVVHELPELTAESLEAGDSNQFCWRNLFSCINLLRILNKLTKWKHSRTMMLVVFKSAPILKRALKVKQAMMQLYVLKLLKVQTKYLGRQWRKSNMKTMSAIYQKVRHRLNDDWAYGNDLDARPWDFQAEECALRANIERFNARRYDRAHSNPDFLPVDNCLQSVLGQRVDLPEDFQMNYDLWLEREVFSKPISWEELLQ

Test [1] addresses OSR1 (recombinant) (human) (UniProt O95747). The experiment in a line: pull-down; GST pulldown: GST-tagged protein, partner and glutathione Sepharose mixed at 4 °C for 1 h in 20 mM HEPES (pH 7.5), 100 mM NaCl; eluted with 20 mM reduced glutathione; SDS-PAGE, Coomassie staining; both purified.
Test [2] deals with T2, MBP-tagged FGFR1OP2 (human) (UniProt Q9NVK5).
T2 sequence: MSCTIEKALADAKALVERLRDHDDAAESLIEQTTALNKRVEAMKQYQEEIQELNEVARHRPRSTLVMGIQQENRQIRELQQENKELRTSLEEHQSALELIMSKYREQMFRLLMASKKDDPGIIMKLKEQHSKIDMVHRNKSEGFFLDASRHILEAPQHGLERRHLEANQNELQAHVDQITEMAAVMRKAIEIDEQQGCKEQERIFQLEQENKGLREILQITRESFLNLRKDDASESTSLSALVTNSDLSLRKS
Description: pull-down; MBP pulldown: MBP-tagged protein, partner and amylose resin mixed at 4 °C for 1 h in 20 mM HEPES (pH 7.5), 100 mM NaCl; eluted with 20 mM maltose; SDS-PAGE, Coomassie staining; both purified.

The next test concerns the target T3, MBP-tagged SIKE1 (human) (UniProt Q9BRV8).
T3 sequence: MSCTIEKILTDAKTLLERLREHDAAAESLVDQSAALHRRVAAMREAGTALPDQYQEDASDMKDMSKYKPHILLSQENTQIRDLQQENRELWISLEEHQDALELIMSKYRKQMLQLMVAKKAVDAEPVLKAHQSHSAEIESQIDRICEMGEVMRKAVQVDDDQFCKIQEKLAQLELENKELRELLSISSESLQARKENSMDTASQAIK
The test is described as above.

Test [3] concerns the target T4, MST2 K56R (recombinant) (human) (UniProt Q13188).
T4 sequence: T1 sequence with K56R
Described as above.

Numbering of substitutions follows the chain as printed. These are yes or no findings as the source states them, for the method shown. For some assays here: Where a sequence is shown, tags or fusion partners need not be part of it.

On to “STRIP1 (full-length, His-tagged, insect cells) (from UniProt Q5VSL9 1-837)”, for which the binding result with GST-tagged MST2 (human) was “no binding (condition: MST2 treated with λPPase)”; in test [1], “no binding”; in test [2], “no binding”; with MBP-tagged SIKE1 (human) it was “no binding”; in test [3], “no binding”.

For the origin of these results see publication PMC6323126.
